Assay results: the supplement of paper PMC4967469

Experiments:
Experiment in all cases: Viability of human cancer cell lines after 72 h of drug (GDSC screen)
QL-XI-92 = compound: C=CC(=O)Nc1cc(NC(=O)c2ccc(C)c(NC(=O)c3ccno3)c2)cc(C(F)(F)F)c1 [QL-XI-92]; conditions: top dose 10.24 µM; top dose inferred
Description: (§1)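 Human cancer cell lines in 384-well plates, medium with 10% serum, drug for 72 h over a 256-fold dose range (nine 2-fold or five 4-fold steps up to the top dose). Adherent lines were fixed and stained with the nucleic acid dye Syto60, suspension lines read with resazurin; signal relative to control wells, capped at 0 and 100%. One two-parameter sigmoid per drug and line, fitted in a mixed model over all curves with the slope shared within a line.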

Vinorelbine = compound: CCC1=C[C@@H]2CN(C1)Cc1c([nH]c3ccccc13)[C@@](C(=O)OC)(c1cc3c(cc1OC)N(C)[C@H]1[C@@](O)(C(=O)OC)[C@H](OC(C)=O)[C@]4(CC)C=CCN5CC[C@]31[C@@H]54)C2 [Vinorelbine]; conditions: top dose 0.064 µM; top dose inferred
Description: as §1

AG-014699 = compound: CNCc1ccc(-c2[nH]c3cc(F)cc4c3c2CCNC4=O)cc1 [AG-014699]; conditions: top dose 5 µM; top dose inferred
Description: as §1

XL-184 = compound: COc1cc2nccc(Oc3ccc(NC(=O)C4(C(=O)Nc5ccc(F)cc5)CC4)cc3)c2cc1OC [XL-184]; conditions: top dose 5.12 µM; top dose inferred
Description: as §1

WHI-P97 = compound: COc1cc2ncnc(Nc3cc(Br)c(O)c(Br)c3)c2cc1OC [WHI-P97]; conditions: top dose 10.24 µM; top dose inferred
Description: as §1

Gefitinib = compound: COc1cc2ncnc(Nc3ccc(F)c(Cl)c3)c2cc1OCCCN1CCOCC1 [Gefitinib]; conditions: top dose 0.5 µM
Description: as §1

Phenformin = compound: N=C(N)NC(=N)NCCc1ccccc1 [Phenformin]; conditions: top dose 4000 µM; top dose inferred
Description: as §1

S-Trityl-L-cysteine = compound: N[C@@H](CSC(c1ccccc1)(c1ccccc1)c1ccccc1)C(=O)O [S-Trityl-L-cysteine]; conditions: top dose 5.12 µM; top dose inferred
Description: as §1

EHT 1864 = compound: O=c1cc(CN2CCOCC2)occ1OCCCCCSc1ccnc2cc(C(F)(F)F)ccc12 [EHT 1864]; conditions: top dose 10 µM; top dose inferred
Description: as §1

NU-7441 = compound: O=c1cc(N2CCOCC2)oc2c(-c3cccc4c3sc3ccccc34)cccc12 [NU-7441]; conditions: top dose 2 µM; top dose inferred
Description: as §1

Cell Line	AUC (QL-XI-92)	pIC50 (QL-XI-92)	AUC (Vinorelbine)	pIC50 (Vinorelbine)	AUC (AG-014699)	pIC50 (AG-014699)	AUC (XL-184)	pIC50 (XL-184)	AUC (WHI-P97)	pIC50 (WHI-P97)	AUC (Gefitinib)	pIC50 (Gefitinib)	AUC (Phenformin)	pIC50 (Phenformin)	AUC (S-Trityl-L-cysteine)	pIC50 (S-Trityl-L-cysteine)	AUC (EHT 1864)	pIC50 (EHT 1864)	AUC (NU-7441)	pIC50 (NU-7441)
ROS-50 (B-cell leukaemia, suspension)	0.861	< 4.99	0.918	< 7.19	0.965	< 5.30	0.95	< 5.29	0.981	< 4.99	0.976	< 6.30	0.583	3.35	0.919	< 5.29	0.979	< 5.00	0.983	< 5.70
RPMI-8402 (T-cell lymphoblastic leukaemia, suspension)	0.874	5.14	0.577	8.20	0.991	< 5.30	0.875	5.43	0.948	< 4.99	0.989	< 6.30	0.432	3.77	0.602	6.24	0.945	< 5.00	0.978	< 5.70
RPMI-8866 (chronic myeloid leukaemia, suspension)	0.988	< 4.99	0.734	7.76	0.946	< 5.30	0.926	< 5.29	0.917	< 4.99	0.892	< 6.30	0.352	4.00	0.902	< 5.29	0.891	< 5.00	0.846	5.88
RXF393 (kidney, adherent)	0.846	< 4.99	0.502	8.39	0.704	5.83	0.84	< 5.29	0.959	< 4.99	0.943	< 6.30	0.932	< 2.40	0.847	< 5.29	0.927	< 5.00	0.969	< 5.70
Ramos-2G6-4C10 (Burkitt lymphoma, suspension)	0.929	< 4.99	0.511	8.37	0.987	< 5.30	0.854	5.50	0.969	< 4.99	0.937	< 6.30	0.452	3.73	0.688	6.01	0.938	< 5.00	0.906	< 5.70
SBC-1 (small cell lung carcinoma, suspension)	0.989	< 4.99	0.96	< 7.19	0.989	< 5.30	0.975	< 5.29	0.984	< 4.99	0.989	< 6.30	0.908	< 2.40	0.911	< 5.29	0.982	< 5.00	0.989	< 5.70

pIC50: −log10 of the molar value. By IC50 is meant the dose at which the fit gives 50% viability; a limit (>, <) means that the fit lies beyond the doses tested. AUC sums up the same curve from the lowest dose to the 256-fold higher top dose; values near 1 show little effect. For part of these data: An inferred top dose is not printed in the source and was worked back from the curve model.
